Assay results taken from PubChem BioAssay AID485294 (National Center for Advancing Translational Sciences (NCATS), 2010).
Among all 370,000 compounds or so, about 150 (0.041%) were called active. Inconclusive means that the source gave no clear call. Such entries were picked first, then a sample of the others. The call rests on the fitted dose curve; in most records, active means well fitted inhibition curve with a large enough effect; inconclusive means small, poorly fitted or top-dose-only effect; inactive means flat fitted curve, though single readings scatter. Potencies of inconclusive entries are left out as doubtful fits.

target: Beta-lactamase (Escherichia coli (strain K12)) (UniProt P00811); assay: qHTS Inhibitors of AmpC Beta-Lactamase (assay with detergent); settings: AmpC hydrolysis of nitrocefin, absorbance 480 nm, 0.01% Triton; activity change, negative = inhibition: at 114 µM (top of the series); further: nearly all actives have a fitted effect of over 25% in size;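 on activity change, negative = inhibition: 0% = no-compound wells and -100% = no-enzyme wells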
How it was run: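 AmpC (5.3 nM in the dispensed reagent) in 20 mM phosphate pH 7.0 with 0.01% (detergent screen) or 0.0001% Triton X-100 was preincubated with compounds for 15 min at room temperature. Nitrocefin was then added from an 800 uM solution, and hydrolysis was followed at 480 nm.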
Potency means the concentration at half of the fitted maximal effect; tags describe the fitted curve by direction and shape.

UniProt P00811, sequence (P00811 whole entry, looked up): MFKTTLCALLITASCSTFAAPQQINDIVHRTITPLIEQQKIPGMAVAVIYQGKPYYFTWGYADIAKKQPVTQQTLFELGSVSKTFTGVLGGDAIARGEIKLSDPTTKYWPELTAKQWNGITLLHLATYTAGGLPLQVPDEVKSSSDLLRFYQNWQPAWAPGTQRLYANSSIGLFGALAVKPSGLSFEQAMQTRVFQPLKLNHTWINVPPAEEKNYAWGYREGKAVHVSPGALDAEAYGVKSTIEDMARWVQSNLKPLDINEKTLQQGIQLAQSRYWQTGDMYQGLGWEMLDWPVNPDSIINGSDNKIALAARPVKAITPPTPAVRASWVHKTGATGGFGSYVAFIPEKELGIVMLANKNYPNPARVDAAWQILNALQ

SMILES | activity change, negative = inhibition | Potency
COc1cc2c(cc1OC)C(COc1ccccc1OC)N(C(=O)C(C)(C)C)CC2 (stereo not drawn) | inactive: -8.64% | –
COc1ccc(N2C(=O)C3CCCN3C2c2cccc(OC)c2)cc1 (stereo not drawn) | – | inconclusive [inhibitor, full curve, poor fit]
O=C(CCN1C(=O)/C(=C/c2ccco2)SC1=S)Nc1ccc(O)cc1C(=O)O | – | inconclusive [inhibitor, single point]
CC(C)(C)OC(=O)CC1(C#N)c2ccccc2C(Br)=CN1C(=O)c1ccccc1 (stereo not drawn) | – | inconclusive [inhibitor, full curve, poor fit]
COc1cc(OC)c(NC(=O)N2CCc3c(sc4c3CCCC4)C2c2ccccc2)cc1Cl (stereo not drawn) | inactive: -3.43% | –
NC(=O)CC[C@H](NC(=O)[C@H](Cc1ccccc1)n1c(=O)[nH]c2ccccc2c1=O)C(=O)N1CCC[C@H]1C(=O)O | – | inconclusive [inhibitor, full curve, poor fit]
O=C(CSc1nc2ncc(Br)cc2[nH]1)c1cccc([N+](=O)[O-])c1 | – | inconclusive [inhibitor, full curve, poor fit]
O=C(NCc1cccnc1)/C(=C\c1ccc(-c2ccc(Cl)c(Cl)c2)o1)S(=O)(=O)c1ccccc1 | inactive: 4% | –
COc1cc2c(-c3ccc(O)cc3)nc3c(c(C)nn3-c3ccccc3)c2cc1OC | inactive: -1.93% | –
COc1ccccc1OP(=O)(O)Oc1ccccc1OC | – | inconclusive [inhibitor, full curve, poor fit]
CCOc1cc(-c2noc(-c3cccnc3)n2)ccc1OC | – | inconclusive [inhibitor, full curve, poor fit]
COc1ccc(S(=O)(=O)N2CCN(C(=O)c3cccs3)CC2)cc1 | – | inconclusive [inhibitor, full curve, poor fit]
CCCCOC(=O)c1[nH]c2c(c1C)C(=O)CC(c1cc(OC)c(OC)c(OC)c1)C2 (stereo not drawn) | – | inconclusive [inhibitor, partial curve, poor fit]
CC(=O)c1c(C)[nH]c(C(=O)Nc2ccc(F)cc2F)c1C | inactive: 4.28% | –
CCC(C(=O)c1ccc(O)cc1)c1ccccc1 (stereo not drawn) | inactive: -14.2% | –
CC(OC(=O)Cc1c[nH]c2ccccc12)C(=O)N(C)c1ccccc1 (stereo not drawn) | – | inconclusive [inhibitor, full curve]
COc1ccc(C(O)Cc2nc3ccccc3n2C)cc1OC (stereo not drawn) | – | inconclusive [inhibitor, full curve, poor fit]
CS(=O)(=O)N(CC(=O)Nc1ccccc1C(=O)NCCc1ccccc1)c1ccc2c(c1)OCCO2 | – | inconclusive [inhibitor, full curve, poor fit]
